# The list shows a part of the results.
# B1: LecRKVI.2 (protein)
# chain: RTTTNFAFRGFNGNQSKIRIEGAAMIKPDGLLRLTDRKSNVTGTAFYHKPVRLLNRNSTNVTIRSFSTSFVFVIIPSSSSNKGFGFTFTLSPTPYRLNAGSAQYLGVFNKENNGDPRNHVFAVEFDTVQGSRDDNTDRIGNDIGLNYNSRTSDLQEPVVYYNNDDHNKKEDFQLESGNPIQALLEYDGATQMLNVTVYPARLGFKPTKPLISQHVPKLLEIVQEEMYVGFTASTGKGQSSAHYVMGWSFSSGGERPIADVLILSELPPPPPNKAKKEGLNS
# Experiments:
# Assay in all cases: glycan array binding signal (z-score within array); higher = stronger binding
# Settings in all cases: glycan notation: IUPAC condensed, linker removed
# [1] = molecular target: Man(a1-2)Man(a1-3)[Man(a1-2)Man(a1-6)]Man(a1-6)[Man(a1-2)Man(a1-2)Man(a1-3)]Man
# Summary of the method: (§1)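 The binding signal is a Z-score computed within each array. Data were drawn from 3228 arrays in the Consortium for Functional Glycomics database, restricted to those with a known protein sequence. Scores were averaged over arrays of the same protein sequence at different concentrations or buffers, and over linkers, and negative values can be taken as non-binding.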
# [2] = molecular target: Man(a1-2)Man(a1-3)[Man(a1-2)Man(a1-6)]Man(a1-6)[Man(a1-2)Man(a1-2)Man(a1-3)]Man(b1-4)GlcNAc(b1-4)GlcNAc
# Summary of the method: as §1
# [3] = molecular target: Man(a1-2)Man(a1-3)[Man(a1-6)]Man(a1-6)[Man(a1-2)Man(a1-3)]Man(b1-4)GlcNAc(b1-4)GlcNAc
# Summary of the method: as §1
# [4] = molecular target: Man(a1-2)Man(a1-6)[Man(a1-3)]Man(a1-6)[Man(a1-2)Man(a1-2)Man(a1-3)]Man
# Summary of the method: as §1
# [5] = molecular target: Man(a1-2)Man(a1-6)[Man(a1-3)]Man(a1-6)[Man(a1-2)Man(a1-2)Man(a1-3)]Man(b1-4)GlcNAc(b1-4)GlcNAc
# Summary of the method: as §1
# Man(a1-3)[Man(a1-6)]Man = molecular target: Man(a1-3)[Man(a1-6)]Man
# Summary of the method: as §1
# [6] = molecular target: Man(a1-3)[Man(a1-6)]Man(a1-6)[Man(a1-2)Man(a1-3)]Man(b1-4)GlcNAc(b1-4)GlcNAc
# Summary of the method: as §1
# [7] = molecular target: Man(a1-3)[Man(a1-6)]Man(a1-6)[Man(a1-3)]Man
# Summary of the method: as §1
# [8] = molecular target: Man(a1-3)[Man(a1-6)]Man(a1-6)[Man(a1-3)]Man(b1-4)GlcNAc(b1-4)GlcNAc
# Summary of the method: as §1
# [9] = molecular target: Man(a1-3)[Man(a1-6)]Man(b1-4)GlcNAc(b1-4)GlcNAc
# Summary of the method: as §1
# [10] = molecular target: Man(a1-3)[Man(a1-6)]Man(b1-4)GlcNAc(b1-4)[Fuc(a1-6)]GlcNAc
# Summary of the method: as §1
# Man(a1-6)Man = molecular target: Man(a1-6)Man
# Summary of the method: as §1
# Man(b1-4)GlcNAc = molecular target: Man(b1-4)GlcNAc
# Summary of the method: as §1
# MurNAc(b1-4)GlcNAc = molecular target: MurNAc(b1-4)GlcNAc
# Summary of the method: as §1
# Neu5Ac(a2-3)Gal = molecular target: Neu5Ac(a2-3)Gal
# Summary of the method: as §1
# [11] = molecular target: Neu5Ac(a2-3)Gal(b1-3)GalNAc
# Summary of the method: as §1
# [12] = molecular target: Neu5Ac(a2-3)Gal(b1-3)GalNAc(b1-3)Gal(a1-4)Gal(b1-4)Glc
# Summary of the method: as §1
# [13] = molecular target: Neu5Ac(a2-3)Gal(b1-3)GalNAc(b1-4)Gal(b1-4)Glc
# Summary of the method: as §1
# [14] = molecular target: Neu5Ac(a2-3)Gal(b1-3)GalNAc(b1-4)[Neu5Ac(a2-3)]Gal(b1-4)Glc
# Summary of the method: as §1
# [15] = molecular target: Neu5Ac(a2-3)Gal(b1-3)GalNAc(b1-4)[Neu5Ac(a2-8)Neu5Ac(a2-3)]Gal(b1-4)Glc
# Summary of the method: as §1
# [16] = molecular target: Neu5Ac(a2-3)Gal(b1-3)GalNAc6S
# Summary of the method: as §1
# [17] = molecular target: Neu5Ac(a2-3)Gal(b1-3)GlcNAc
# Summary of the method: as §1
# [18] = molecular target: Neu5Ac(a2-3)Gal(b1-3)GlcNAc(b1-2)Man
# Summary of the method: as §1
# [19] = molecular target: Neu5Ac(a2-3)Gal(b1-3)GlcNAc(b1-2)Man(a1-3)[GlcNAc(b1-4)][Neu5Ac(a2-3)Gal(b1-3)GlcNAc(b1-2)Man(a1-6)]Man(b1-4)GlcNAc(b1-4)GlcNAc
# Summary of the method: as §1
# [20] = molecular target: Neu5Ac(a2-3)Gal(b1-3)GlcNAc(b1-2)Man(a1-3)[Neu5Ac(a2-3)Gal(b1-3)GlcNAc(b1-2)Man(a1-6)]Man(b1-4)GlcNAc(b1-4)GlcNAc
# Summary of the method: as §1
# [21] = molecular target: Neu5Ac(a2-3)Gal(b1-3)GlcNAc(b1-2)[Neu5Ac(a2-3)Gal(b1-3)GlcNAc(b1-4)]Man(a1-6)[Neu5Ac(a2-3)Gal(b1-3)GlcNAc(b1-2)Man(a1-3)]Man(b1-4)GlcNAc(b1-4)GlcNAc
# Summary of the method: as §1
# [22] = molecular target: Neu5Ac(a2-3)Gal(b1-3)GlcNAc(b1-3)Gal(b1-3)GlcNAc
# Summary of the method: as §1
# [23] = molecular target: Neu5Ac(a2-3)Gal(b1-3)GlcNAc(b1-3)Gal(b1-4)GlcNAc
# Summary of the method: as §1
# [24] = molecular target: Neu5Ac(a2-3)Gal(b1-3)GlcNAc(b1-3)GalNAc
# Summary of the method: as §1
# [25] = molecular target: Neu5Ac(a2-3)Gal(b1-3)GlcNAc(b1-6)GalNAc
# Summary of the method: as §1
# [26] = molecular target: Neu5Ac(a2-3)Gal(b1-3)GlcNAc6S
# Summary of the method: as §1
# [27] = molecular target: Neu5Ac(a2-3)Gal(b1-3)[Fuc(a1-4)]GlcNAc
# Summary of the method: as §1
# [28] = molecular target: Neu5Ac(a2-3)Gal(b1-3)[Fuc(a1-4)]GlcNAc(b1-3)Gal(b1-3)[Fuc(a1-4)]GlcNAc
# Summary of the method: as §1
# [29] = molecular target: Neu5Ac(a2-3)Gal(b1-3)[Fuc(a1-4)]GlcNAc(b1-3)Gal(b1-4)[Fuc(a1-3)]GlcNAc
# Summary of the method: as §1
# [30] = molecular target: Neu5Ac(a2-3)Gal(b1-3)[GlcNAc(b1-6)]GalNAc
# Summary of the method: as §1
# [31] = molecular target: Neu5Ac(a2-3)Gal(b1-3)[Neu5Ac(a2-6)]GalNAc
# Summary of the method: as §1
# [32] = molecular target: Neu5Ac(a2-3)Gal(b1-3)[Neu5Ac(a2-6)]GlcNAc(b1-3)[Fuc(a1-3)[Gal(b1-4)]GlcNAc(b1-6)]Gal(b1-4)Glc
# Summary of the method: as §1
binder,measurement,setting,value
B1,glycan array binding signal (z-score),[1],-0.426
same,glycan array binding signal (z-score),[2],-0.34
same,glycan array binding signal (z-score),[3],-0.161
same,glycan array binding signal (z-score),[4],-0.38
same,glycan array binding signal (z-score),[5],-0.299
same,glycan array binding signal (z-score),Man(a1-3)[Man(a1-6)]Man,-0.318
same,glycan array binding signal (z-score),[6],0.389
same,glycan array binding signal (z-score),[7],-0.373
same,glycan array binding signal (z-score),[8],0.086
same,glycan array binding signal (z-score),[9],-0.376
same,glycan array binding signal (z-score),[10],-0.127
same,glycan array binding signal (z-score),Man(a1-6)Man,-0.393
same,glycan array binding signal (z-score),Man(b1-4)GlcNAc,-0.283
same,glycan array binding signal (z-score),MurNAc(b1-4)GlcNAc,-0.279
same,glycan array binding signal (z-score),Neu5Ac(a2-3)Gal,-0.315
same,glycan array binding signal (z-score),[11],-0.423
same,glycan array binding signal (z-score),[12],-0.388
same,glycan array binding signal (z-score),[13],-0.298
same,glycan array binding signal (z-score),[14],-0.292
same,glycan array binding signal (z-score),[15],-0.392
same,glycan array binding signal (z-score),[16],-0.373
same,glycan array binding signal (z-score),[17],-0.338
same,glycan array binding signal (z-score),[18],-0.335
same,glycan array binding signal (z-score),[19],-0.407
same,glycan array binding signal (z-score),[20],-0.077
same,glycan array binding signal (z-score),[21],2.24
same,glycan array binding signal (z-score),[22],-0.418
same,glycan array binding signal (z-score),[23],-0.343
same,glycan array binding signal (z-score),[24],-0.45
same,glycan array binding signal (z-score),[25],-0.315
same,glycan array binding signal (z-score),[26],-0.11
same,glycan array binding signal (z-score),[27],-0.318
same,glycan array binding signal (z-score),[28],-0.341
same,glycan array binding signal (z-score),[29],-0.388
same,glycan array binding signal (z-score),[30],-0.402
same,glycan array binding signal (z-score),[31],-0.325
same,glycan array binding signal (z-score),[32],-0.05
